# Results published in the supplement of paper PMC8728848.
# The other results are listed elsewhere or left out.
# Legend:
# Test in all cases: glycan array binding signal (z-score within array); higher = stronger binding
# Conditions in all cases: glycan notation: IUPAC condensed, linker removed
# [1] = target: Gal(b1-3)Gal(b1-4)GlcNAc
# In short: (§1)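 Arrays were curated from the Consortium for Functional Glycomics database, 3228 in total, and kept only where the protein sequence was available. Binding is expressed as a within-array Z-score. This score was averaged across arrays of the same protein sequence at different concentrations or buffers and across linkers, and negative values can be read as non-binding.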
# [2] = target: Gal(b1-3)Gal(b1-4)GlcNAc(b1-2)Man(a1-3)[Gal(b1-3)Gal(b1-4)GlcNAc(b1-2)Man(a1-6)]Man(b1-4)GlcNAc(b1-4)GlcNAc
# In short: as §1
# [3] = target: Gal(b1-3)GalNAc
# In short: as §1
# [4] = target: Gal(b1-3)GalNAc(a1-3)[Fuc(a1-2)]Gal(b1-4)Glc
# In short: as §1
# [5] = target: Gal(b1-3)GalNAc(a1-3)[Fuc(a1-2)]Gal(b1-4)GlcNAc
# In short: as §1
# [6] = target: Gal(b1-3)GalNAc(b1-3)Gal(a1-4)Gal(b1-4)Glc
# In short: as §1
# [7] = target: Gal(b1-3)GalNAc(b1-4)Gal(b1-4)Glc
# In short: as §1
# [8] = target: Gal(b1-3)GalNAc(b1-4)[Neu5Ac(a2-3)]Gal(b1-4)Glc
# In short: as §1
# [9] = target: Gal(b1-3)GlcNAc
# In short: as §1
# [10] = target: Gal(b1-3)GlcNAc(a1-6)Gal(b1-4)GlcNAc
# In short: as §1
# [11] = target: Gal(b1-3)GlcNAc(b1-2)Man(a1-3)[Gal(b1-3)GlcNAc(b1-2)Man(a1-6)]Man(b1-4)GlcNAc(b1-4)GlcNAc
# In short: as §1
# [12] = target: Gal(b1-3)GlcNAc(b1-2)Man(a1-3)[Gal(b1-3)GlcNAc(b1-2)Man(a1-6)]Man(b1-4)GlcNAc(b1-4)[Fuc(a1-6)]GlcNAc
# In short: as §1
# [13] = target: Gal(b1-3)GlcNAc(b1-2)[Gal(b1-3)GlcNAc(b1-6)]Man(a1-6)[Gal(b1-3)GlcNAc(b1-2)Man(a1-3)]Man(b1-4)GlcNAc(b1-4)GlcNAc
# In short: as §1
# [14] = target: Gal(b1-3)GlcNAc(b1-3)Gal(b1-3)GlcNAc
# In short: as §1
# [15] = target: Gal(b1-3)GlcNAc(b1-3)Gal(b1-4)Glc
# In short: as §1
# [16] = target: Gal(b1-3)GlcNAc(b1-3)Gal(b1-4)GlcNAc
# In short: as §1
# [17] = target: Gal(b1-3)GlcNAc(b1-3)Gal(b1-4)GlcNAc(b1-6)[Gal(b1-3)GlcNAc(b1-3)]Gal(b1-4)Glc
# In short: as §1
# [18] = target: Gal(b1-3)GlcNAc(b1-3)Gal(b1-4)[Fuc(a1-3)]GlcNAc(b1-6)[Gal(b1-3)GlcNAc(b1-3)]Gal(b1-4)Glc
# In short: as §1
# [19] = target: Gal(b1-3)GlcNAc(b1-3)GalNAc
# In short: as §1
# [20] = target: Gal(b1-3)GlcNAc(b1-6)Gal(b1-4)GlcNAc
# In short: as §1
# [21] = target: Gal(b1-3)[Fuc(a1-4)]GlcNAc
# In short: as §1
# [22] = target: Gal(b1-3)[Fuc(a1-4)]GlcNAc(b1-2)Man(a1-3)[Gal(b1-3)[Fuc(a1-4)]GlcNAc(b1-2)Man(a1-6)]Man(b1-4)GlcNAc(b1-4)GlcNAc
# In short: as §1
# [23] = target: Gal(b1-3)[Fuc(a1-4)]GlcNAc(b1-2)Man(a1-3)[Gal(b1-3)[Fuc(a1-4)]GlcNAc(b1-2)Man(a1-6)]Man(b1-4)GlcNAc(b1-4)[Fuc(a1-6)]GlcNAc
# In short: as §1
# [24] = target: Gal(b1-3)[Fuc(a1-4)]GlcNAc(b1-3)Gal(b1-3)[Fuc(a1-4)]GlcNAc
# In short: as §1
# [25] = target: Gal(b1-3)[Fuc(a1-4)]GlcNAc(b1-3)Gal(b1-4)GlcNAc
# In short: as §1
# [26] = target: Gal(b1-3)[Fuc(a1-4)]GlcNAc(b1-3)Gal(b1-4)[Fuc(a1-3)]GlcNAc
# In short: as §1
# [27] = target: Gal(b1-3)[GlcNAc(b1-6)]GalNAc
# In short: as §1
# [28] = target: Gal(b1-3)[Neu5Ac(a2-6)]GalNAc
# In short: as §1
# [29] = target: Gal(b1-3)[Neu5Ac(a2-6)]GlcNAc(b1-6)Gal(b1-4)Glc
# In short: as §1
# [30] = target: Gal(b1-3)[Neu5Ac(b2-6)]GalNAc
# In short: as §1
# [31] = target: Gal(b1-4)Gal
# In short: as §1
# [32] = target: Gal(b1-4)GalNAc(a1-3)[Fuc(a1-2)]Gal(b1-4)GlcNAc
# In short: as §1
# [33] = target: Gal(b1-4)GalNAc(b1-3)[Fuc(a1-2)]Gal(b1-4)GlcNAc
# In short: as §1
# [34] = target: Gal(b1-4)Glc
# In short: as §1
# [35] = target: Gal(b1-4)Glc6S
# In short: as §1
# [36] = target: Gal(b1-4)GlcNAc
# In short: as §1
# [37] = target: Gal(b1-4)GlcNAc(a1-6)Gal(b1-4)GlcNAc
# In short: as §1
binder,measurement,setting,value
"LSectin (Mus musculus), Q8BNX1 (protein) MNTGEYNKLGSAIEEVSRGQLGRWECYKQRLFFLVLALLVATVLWALILSTLLSSASSKLRVLLSHQDLLRTNASEQKMTLSSLKDDIGACRNCCSVTKAQLQTTLAEFKDIQAKLMEQESILKELQERVTQDLAKASRDRENIRSELFQALEAVKRQNSSCEQCPPSWLPFQGSCYYFSETQATWDTAQSYCGGQGAHLVIVRGLNEQGFLSQHTRGRGYWLGLRAVRHLNKIQGYRWVDGASLNFSHWNSGEPNDSRGHEDCIMMLHSGLWNDAPCTNERDGWICEKRSSCY",glycan array binding signal (z-score),[1],-0.177
same,glycan array binding signal (z-score),[2],-0.148
same,glycan array binding signal (z-score),[3],-0.18
same,glycan array binding signal (z-score),[4],-0.188
same,glycan array binding signal (z-score),[5],-0.188
same,glycan array binding signal (z-score),[6],-0.187
same,glycan array binding signal (z-score),[7],-0.182
same,glycan array binding signal (z-score),[8],-0.165
same,glycan array binding signal (z-score),[9],-0.132
same,glycan array binding signal (z-score),[10],-0.188
same,glycan array binding signal (z-score),[11],0.382
same,glycan array binding signal (z-score),[12],0.186
same,glycan array binding signal (z-score),[13],0.121
same,glycan array binding signal (z-score),[14],-0.18
same,glycan array binding signal (z-score),[15],-0.172
same,glycan array binding signal (z-score),[16],-0.175
same,glycan array binding signal (z-score),[17],-0.185
same,glycan array binding signal (z-score),[18],-0.177
same,glycan array binding signal (z-score),[19],-0.18
same,glycan array binding signal (z-score),[20],-0.178
same,glycan array binding signal (z-score),[21],-0.164
same,glycan array binding signal (z-score),[22],-0.166
same,glycan array binding signal (z-score),[23],-0.183
same,glycan array binding signal (z-score),[24],-0.172
same,glycan array binding signal (z-score),[25],-0.176
same,glycan array binding signal (z-score),[26],-0.174
same,glycan array binding signal (z-score),[27],-0.172
same,glycan array binding signal (z-score),[28],-0.165
same,glycan array binding signal (z-score),[29],-0.162
same,glycan array binding signal (z-score),[30],-0.191
same,glycan array binding signal (z-score),[31],-0.179
same,glycan array binding signal (z-score),[32],-0.169
same,glycan array binding signal (z-score),[33],-0.159
same,glycan array binding signal (z-score),[34],-0.18
same,glycan array binding signal (z-score),[35],-0.144
same,glycan array binding signal (z-score),[36],-0.144
same,glycan array binding signal (z-score),[37],-0.143
